The results in this text go back to publication PMC4336329 (PLoS ONE, 2015).

Each structure is given as a SMILES string. In all, about 310,000 compounds went through this assay and about 14,000 (4.5%) showed an effect of 50% or more. The effect is printed as a negative number. This is one part of the list.
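Further: peak tail current of the secondary pulse compared with the same well before compound.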

Chain of human ether-à-go-go-related gene (hERG) potassium channel (Q12809 whole entry, looked up): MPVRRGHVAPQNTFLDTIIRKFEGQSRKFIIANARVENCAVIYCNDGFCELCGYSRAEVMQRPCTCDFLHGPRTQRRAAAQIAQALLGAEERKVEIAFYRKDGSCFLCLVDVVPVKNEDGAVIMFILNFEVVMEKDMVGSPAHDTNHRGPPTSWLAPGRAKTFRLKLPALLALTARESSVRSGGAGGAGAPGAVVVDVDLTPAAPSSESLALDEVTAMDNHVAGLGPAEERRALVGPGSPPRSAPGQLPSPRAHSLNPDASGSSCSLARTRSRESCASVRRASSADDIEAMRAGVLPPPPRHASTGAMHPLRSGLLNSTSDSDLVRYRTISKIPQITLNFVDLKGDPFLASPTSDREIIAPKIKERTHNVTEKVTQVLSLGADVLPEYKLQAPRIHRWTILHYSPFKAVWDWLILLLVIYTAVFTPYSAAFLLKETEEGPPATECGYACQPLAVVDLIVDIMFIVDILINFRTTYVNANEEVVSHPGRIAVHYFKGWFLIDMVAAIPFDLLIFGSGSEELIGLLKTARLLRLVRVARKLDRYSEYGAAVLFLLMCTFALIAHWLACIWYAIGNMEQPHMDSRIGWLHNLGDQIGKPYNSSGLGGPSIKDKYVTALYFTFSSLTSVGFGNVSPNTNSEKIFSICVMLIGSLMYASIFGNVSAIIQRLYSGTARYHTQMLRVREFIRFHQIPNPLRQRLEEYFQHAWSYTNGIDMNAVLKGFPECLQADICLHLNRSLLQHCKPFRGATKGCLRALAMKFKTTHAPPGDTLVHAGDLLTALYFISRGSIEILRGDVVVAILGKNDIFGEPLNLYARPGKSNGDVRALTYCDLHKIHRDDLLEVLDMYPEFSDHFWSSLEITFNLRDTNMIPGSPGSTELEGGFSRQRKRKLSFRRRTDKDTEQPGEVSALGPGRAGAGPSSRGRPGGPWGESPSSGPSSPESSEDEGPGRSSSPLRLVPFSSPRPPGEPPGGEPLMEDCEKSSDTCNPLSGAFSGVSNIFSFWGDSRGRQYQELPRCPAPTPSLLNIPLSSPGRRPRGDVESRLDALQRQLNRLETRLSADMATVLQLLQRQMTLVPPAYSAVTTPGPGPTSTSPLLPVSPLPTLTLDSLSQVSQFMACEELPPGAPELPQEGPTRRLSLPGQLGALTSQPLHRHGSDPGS

The experiment has as its target human ether-à-go-go-related gene (hERG) potassium channel (human, UniProt Q12809). In words: primary screen, population patch clamp on CHO cells stably expressing hERG.
On to `Cc1cnc(C(=O)OCC(=O)Nc2ccc(OCc3ccccc3)cc2)cn1`, for which the “hERG current change (%, negative = inhibition) at 10uM” value is reported as 9.67%.

As to `Cc1cc(OCCn2cc(/C(N)=N/O)c3ccccc32)ccc1Cl`, the “hERG current change (%, negative = inhibition) at 10uM” value amounted to 0.721%.

As to `CCOc1nc(Nc2ccc([N+](=O)[O-])cc2)nc(NC(C)(C)C)n1`, the “hERG current change (%, negative = inhibition) at 10uM” value is 12.2%.

On to `COc1cccc2c1Oc1ncccc1N(C(=O)CCC(=O)NCc1ccccc1F)C2`, for which the “hERG current change (%, negative = inhibition) at 10uM” value is on record as -22.8%.

In the case of `CC(C)Cc1cc(C(=O)Nc2cc(C(F)(F)F)ccc2Cl)no1`, the “hERG current change (%, negative = inhibition) at 10uM” value was determined as 13.7%.

For `CN(C)c1ccc(/C=N/NC(=O)C2COc3ccccc3O2)o1` (stereo not shown), the “hERG current change (%, negative = inhibition) at 10uM” value is listed as -4.21%.

For the compound `CCCCCCN(C(=O)CCCCCN1C(=O)NC(c2ccc([N+](=O)[O-])cc2)C(C(=O)OCc2ccccc2)=C1C)C(C(=O)NCCCC)c1ccc(OCC(=O)OC)c(C(=O)OC)c1` (stereo not shown), the “hERG current change (%, negative = inhibition) at 10uM” value is on record as -16.6%.

For the compound `CCOC(=O)C=Nc1c(N)n(C)c(=O)n(C)c1=O`, the “hERG current change (%, negative = inhibition) at 10uM” value was -3.14%.

Regarding `Cc1nc(SCc2ccc(C(=O)O)cc2)nc2c1CCCC2`, the “hERG current change (%, negative = inhibition) at 10uM” value is -2.64%.

Take `CNC1(C(N)=O)CCNCC1`: the “hERG current change (%, negative = inhibition) at 10uM” value was found to be 7.53%.

Take `CCOC(=O)C1CCCN(CCC(=O)Nc2cc(OC)ccc2OC)C1.Cl` (stereo not shown): the “hERG current change (%, negative = inhibition) at 10uM” value is on record as -12.2%.

As for `CC(c1ccc(F)cc1)n1cc(C(=O)NCc2ccccn2)nn1` (stereo not shown), the “hERG current change (%, negative = inhibition) at 10uM” value was 7.73%.

`CCOC(=O)c1c(C)[nH]c(C(=O)COC(=O)[C@H](C)NC(=O)c2ccccc2Cl)c1C`: the “hERG current change (%, negative = inhibition) at 10uM” value is given as -21.8%.

With `COc1cc2c(cc1OC)C1Cc3ccc(OC)c(OC)c3C[N+]1([O-])CC2` (stereo not shown), the “hERG current change (%, negative = inhibition) at 10uM” value was 10.8%.

Turning to `Cn1nnnc1SCCOc1ccc(C#N)cc1`, the “hERG current change (%, negative = inhibition) at 10uM” value is given as -16.5%.

With `Cc1ccc(F)c(NC(=O)c2ccc(Cn3cc(Cl)cn3)cc2)c1`, the “hERG current change (%, negative = inhibition) at 10uM” value came to 16.5%.

In the case of `CCN(Cc1ccncc1)C(=O)C1CCC(=O)N(Cc2ccc(Cl)cc2)C1` (stereo not shown), the “hERG current change (%, negative = inhibition) at 10uM” value was -26.8%.

Turning to `O=C(Cn1nc(Cl)nc1Cl)c1ccc2c(c1)OCCO2`, the “hERG current change (%, negative = inhibition) at 10uM” value was -1.69%.

`Cn1nc(C(C)(C)C)c([N+](=O)[O-])c1C(=O)Nc1ccc(Br)cc1`: the “hERG current change (%, negative = inhibition) at 10uM” value came out at 19.8%.

As to `COc1ccc(-n2nc(C(=O)c3cccs3)cc(-c3nc4ccccc4[nH]3)c2=N)cc1`, the “hERG current change (%, negative = inhibition) at 10uM” value is on record as -4.53%.

As to `Cc1[nH]c2ccc(F)cc2c1CCN(Cc1cccnc1)C(=S)Nc1ccccc1`, the “hERG current change (%, negative = inhibition) at 10uM” value is reported as -23.5%.

With `Cc1cc(C)n2nc(-c3ccccc3)cc2n1`, the “hERG current change (%, negative = inhibition) at 10uM” value worked out at 5.54%.

Turning to `O=C(O)C1CSC2(c3ccc(F)cc3)CCC(=O)N12` (stereo not shown), the “hERG current change (%, negative = inhibition) at 10uM” value is recorded as 19.4%.

`COc1cc(CCC(=O)Nc2ccc(C)c(S(=O)(=O)N3CCCCCC3)c2)cc(OC)c1OC`: the “hERG current change (%, negative = inhibition) at 10uM” value is reported as -6.5%.

In the case of `O=[N+]([O-])c1ccccc1S(=O)(=O)N1CCN(Cc2cc3c(cc2O)OCO3)CC1`, the “hERG current change (%, negative = inhibition) at 10uM” value was determined as 57.4%.

Turning to `CN(C)C(CNC(=O)c1ccc(S(=O)(=O)Nc2cccc(C(F)(F)F)c2)cc1)c1ccco1` (stereo not shown), the “hERG current change (%, negative = inhibition) at 10uM” value is on record as -16.9%.

With `COc1cccc(CNC(=O)N2CCN(c3ccccc3C)CC2)c1`, the “hERG current change (%, negative = inhibition) at 10uM” value is -5.7%.

Take `NC(=S)NNC(=O)C12CC3CC(CC(C3)C1)C2`: the “hERG current change (%, negative = inhibition) at 10uM” value was -2.16%.

With `COc1ccc(CNC(=O)[C@@H]2CC=C[C@@H]3CCN(C4CCCCC4)C(=O)[C@@H]32)cc1`, the “hERG current change (%, negative = inhibition) at 10uM” value is given as -10.3%.

On to `CC(C)C[C@H]1CN=C(N(C)C)N1CCCCc1ccccc1`, for which the “hERG current change (%, negative = inhibition) at 10uM” value was -64.7%.

`COc1ccc(-c2nn(-c3ccccc3)cc2/C=C2/SC(=S)N(CCCC(=O)O)C2=O)c(C)c1`: the “hERG current change (%, negative = inhibition) at 10uM” value is given as 26%.

On to `COc1cc(N/C=C(\C(C)=O)c2ccccc2)cc(OC)c1`, for which the “hERG current change (%, negative = inhibition) at 10uM” value is recorded as -8.39%.

For `COc1ccc(OCCC(=O)OCC(=O)c2ccc[nH]2)cc1`, the “hERG current change (%, negative = inhibition) at 10uM” value worked out at 13.8%.

Consider `Cc1ccc(S(=O)(=O)Nc2cccc(C(=O)N3CCOCC3)c2)cc1`, for which the “hERG current change (%, negative = inhibition) at 10uM” value is reported as 20.7%.

Consider `CCNC(=S)Nc1ccc(Cl)c([N+](=O)[O-])c1`, for which the “hERG current change (%, negative = inhibition) at 10uM” value is recorded as -11.7%.

Turning to `Cc1ccc2nc(C)cc(SCC(=O)N/N=C/c3ccco3)c2c1`, the “hERG current change (%, negative = inhibition) at 10uM” value is listed as 6.06%.

On to `Cc1ccc2nc3c(cc(C(=O)NCCN4CCOCC4)c(=N)n3CCCN3CCOCC3)c(=O)n2c1`, for which the “hERG current change (%, negative = inhibition) at 10uM” value is given as -7.16%.

`CC(C)(C)NC(=O)COC(=O)c1ccc(S(=O)(=O)N2CCCC2)cc1`: the “hERG current change (%, negative = inhibition) at 10uM” value was -7.52%.

Regarding `O=C(CSc1nc2[nH]ncc2c(=O)[nH]1)N1CCCCC1`, the “hERG current change (%, negative = inhibition) at 10uM” value was 16%.

Take `Cc1ccc2oc(-c3cccc(NC(=O)Cn4cnc5c(=O)n(C)c(=O)n(C)c54)c3)nc2c1`: the “hERG current change (%, negative = inhibition) at 10uM” value is 9.16%.

Consider `CC(=O)Nc1c2c(nn1-c1ccccc1C)CS(=O)C2` (stereo not shown), for which the “hERG current change (%, negative = inhibition) at 10uM” value stood at 18.7%.

Turning to `Cc1noc(C)c1S(=O)(=O)N1CCC(C(=O)O)CC1`, the “hERG current change (%, negative = inhibition) at 10uM” value is given as -3.88%.

For `O=C(COC(=O)c1ccc(F)cc1)NCCc1ccc(F)cc1`, the “hERG current change (%, negative = inhibition) at 10uM” value is 4.42%.

As to `Cc1ccc(-c2nnc(CSc3nnc(COc4ccccc4)n3-c3ccccc3)o2)cc1`, the “hERG current change (%, negative = inhibition) at 10uM” value is given as 4.4%.

As for `CN=Cc1cc(-c2ccccc2)sc1O`, the “hERG current change (%, negative = inhibition) at 10uM” value is 8.05%.

As for `CC1CCc2[nH]c3ccc(C(=O)N4CCCC(C(F)(F)F)C4)cc3c2C1` (stereo not shown), the “hERG current change (%, negative = inhibition) at 10uM” value was found to be 12.2%.

Consider `Cc1ccc(S(=O)(=O)N/N=C/c2cccc(OC3CSC3)c2)cc1`, for which the “hERG current change (%, negative = inhibition) at 10uM” value was -9.36%.

In the case of `N#CC1=C(N)SC(N)=C(C#N)C1c1ccoc1`, the “hERG current change (%, negative = inhibition) at 10uM” value came to 7.8%.

For the compound `CCC1CCCCN1CCCNC(=O)CNC(=O)c1nn(-c2ccc(OC)c(Cl)c2)c(=O)c2ccccc12` (stereo not shown), the “hERG current change (%, negative = inhibition) at 10uM” value is -39.4%.

`O=[N+]([O-])c1ccc(Cl)c(C2Nc3cccc4cccc(c34)N2)c1`: the “hERG current change (%, negative = inhibition) at 10uM” value came to 8.32%.

In the case of `O=C(O)/C=C/C(=O)c1ccc(O)cc1`, the “hERG current change (%, negative = inhibition) at 10uM” value came to 2.05%.

`O=C(Nc1ccc(C(=O)N2CCCCC2)cc1)Nc1cccc(Cl)c1`: the “hERG current change (%, negative = inhibition) at 10uM” value worked out at 16%.

As for `CCN(CC)C(=O)Cn1cc(S(=O)(=O)CC(=O)N2CC(C)OC(C)C2)c2ccccc21` (stereo not shown), the “hERG current change (%, negative = inhibition) at 10uM” value is reported as -1.49%.

Consider `CCc1nn(CC(=O)NCCCN2CCOCC2)c(=O)c2cc3sccc3n12`, for which the “hERG current change (%, negative = inhibition) at 10uM” value was determined as 16.2%.

For `O=C(c1cc(S(=O)(=O)N2CCCC2)c(Cl)cc1Cl)N1CCCC1`, the “hERG current change (%, negative = inhibition) at 10uM” value is on record as -3.95%.
